# Measurements reported in the supplement of paper PMC10670038.
# Structures can show the parent of a compound that is named as a salt. ± gives the standard deviation of the averaged measurements. Whole data set: some 2,000 compounds, median “relative cell viability vs DMSO, compound + 0.2 uM CuET” near 1, cut for the lowest 2% near 0.25. This is one part of the list.
# Tested on: TE10
# Assay: relative cell viability vs DMSO, compound + 0.2 uM CuET (fraction); TE10 is an esophageal squamous carcinoma line; higher = less cytotoxic
# Conditions: 2 µM; co-treatment: CuET (bis(diethyldithiocarbamate)copper) 0.2 uM; 48 h
# Protocol: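 TE10 ESCC cells (1,000/well, 384-well plates) were treated with Selleck bioactive library compounds at 2 uM combined with 0.2 uM CuET (copper diethyldithiocarbamate) for 48 h. Viability was read by CellTiter-Glo and expressed relative to DMSO wells. Two technical replicates (A, B).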
row,Compound,relative cell viability
1,C[C@@H]1COC(Nc2ccc3ncnc(Nc4ccc(OCc5nccs5)c(Cl)c4)c3c2)=N1 [Varlitinib],1.04 ± 0.086
2,O=C(/C=C/c1ccc(O)c(O)c1)O[C@@H]1C[C@](O)(C(=O)O)C[C@@H](O)[C@H]1O [Chlorogenic Acid],1.1 ± 0.11
3,CN(C)CC/C=C1/c2ccccc2COc2ccc(CC(=O)O)cc21 [Olopatadine HCl],1.06 ± 0.1
4,c1ccc(CN(CC2=NCCN2)c2ccccc2)cc1 [Antazoline HCl],1.01 ± 0.14
5,CN(C)Cc1ccc(S(=O)(=O)n2ccc(/C=C/C(=O)NO)c2)cc1 [Resminostat],0.848 ± 0.19
6,CCn1cc(NC(=S)Nc2cc(Cl)ccc2OC)c(C(N)=O)n1,1.25 ± 0.023
7,CC[C@H](C)C[C@H](C)CCCCCCCCC(=O)N[C@H]1C[C@@H](O)[C@@H](NCCN)NC(=O)[C@@H]2[C@@H](O)CCN2C(=O)[C@H]([C@H](O)CCN)NC(=O)[C@H]([C@H](O)[C@@H](O)c2ccc(O)cc2)NC(=O)[C@@H]2C[C@@H](O)CN2C(=O)[C@H]([C@@H](C)O)NC1=O [Caspofungin Acetate],1.23 ± 0.25
8,Nc1ncnc2n[nH]c(Nc3ccc(F)cc3)c12,1.08 ± 0.1
9,Cc1ccc(-n2nc(C(C)(C)C)cc2NC(=O)Nc2ccc(OCCN3CCOCC3)c3ccccc23)cc1 [BIRB 796 (Doramapimod)],1.16 ± 0.089
10,CCCCCCCCCCCC[N+](C)(C)CCOc1ccccc1 [Domiphen Bromide],1.04 ± 0.12
11,CNC(=O)c1ccc(C)c(-n2c(C)cc(OCc3ccc(F)cc3F)c(Br)c2=O)c1,1.36 ± 0.089
12,Cc1cc(OCc2nnc(SC3CCCC3)n2-c2cccnc2)ccc1-c1ccc(S(C)(=O)=O)cc1,0.771 ± 0.067
13,CC(C)(O)c1ccccc1CC[C@@H](SCC1(CC(=O)O)CC1)c1cccc(/C=C/c2ccc3ccc(Cl)cc3n2)c1 [Montelukast Sodium],1.088 ± 0.0034
14,O=C1NC(=O)C(c2ccccc2)(c2ccccc2)N1 [Phenytoin],0.981 ± 0.16
15,O=C1NC(=O)C(=Cc2ccc(-c3ccc(F)cc3)o2)S1 (stereo in doubt),0.489 ± 0.49
16,CN(C)C/C=C/C(=O)Nc1cc2c(Nc3ccc(F)c(Cl)c3)ncnc2cc1O[C@H]1CCOC1 [Afatinib (BIBW2992) Dimaleate],0.701 ± 0.038
17,CN(C)C/C=C/C(=O)Nc1cc2c(Nc3ccc(F)c(Cl)c3)ncnc2cc1O[C@H]1CCOC1 [Afatinib (BIBW2992)],0.765 ± 0.04
18,OC[C@@H](O)[C@@H](O)[C@@H](O)CO [Ribitol],0.99 ± 0.056
19,O=C(Nc1ccccc1)Nc1ccc(-c2ccc(C(=O)[C@@H]3CCC[C@H]3C(=O)O)cc2)cc1,0.806 ± 0.08

row,Compound,relative cell viability
1,O=C(NOCC(O)CO)c1cc(Br)c(F)c(F)c1Nc1ccc(I)cc1F (stereo not drawn),0.92 ± 0.085
2,CN(C)CC(c1ccc(O)cc1)C1(O)CCCCC1 (stereo not drawn) [Desvenlafaxine],1.09 ± 0.057
3,CN(C)CC(c1ccc(O)cc1)C1(O)CCCCC1 (stereo not drawn) [Desvenlafaxine Succinate],1.28 ± 0.032
4,COc1ccc(S(=O)(=O)N(CCO)c2ccccc2CN(C)C/C=C/c2ccc(Cl)cc2)cc1 [KN-93 Phosphate],1.06 ± 0.14
5,O=C(Nc1ccccc1Br)N[C@@H]1CCN(c2ccc(C(F)(F)F)cn2)C1,1.09 ± 0.17
6,O=C(c1ccccc1)c1ccc2n1CCC2C(=O)O (stereo not drawn) [Ketorolac],1.06 ± 0.016
7,CCN(CC)CCCC(C)Nc1nc(C)cc(Nc2ccc3nc(C)cc(N)c3c2)n1 (stereo not drawn),1.11 ± 0.029
8,O=C(C[S+]([O-])Cc1ccco1)NC/C=C\COc1cc(CN2CCCCC2)ccn1 (stereo not drawn) [Lafutidine],0.987 ± 0.017
9,C#CCC(Cc1cnc2nc(N)nc(N)c2n1)c1ccc(C(=O)N[C@@H](CCC(=O)O)C(=O)O)cc1 (stereo partly drawn) [Pralatrexate],0.421 ± 0.035
10,N#Cc1c(NC(=O)c2cccc3ccccc23)sc2c1CCCC2 [JNK Inhibitor IX],0.653 ± 0.099
11,C=CC(=O)Nc1cccc(Nc2nc(Nc3ccc(OCCOC)cc3)ncc2F)c1,0.892 ± 0.11
12,CCC(=O)Nc1cccc(Oc2nc(Nc3ccc(N4CCN(C)CC4)cc3OC)ncc2Cl)c1,0.976 ± 0.088
13,COC(=O)Nc1nc2cc([S+]([O-])c3ccccc3)ccc2[nH]1 (stereo not drawn) [Oxfendazole],0.861 ± 0.1
14,O=C1NCCCc2c1oc1ccc(O)cc21,1.22 ± 0.039
15,COc1ccccc1OCC(O)COC(N)=O (stereo not drawn) [Methocarbamol],1.03 ± 0.083
16,Nc1ccn([C@@H]2CS[C@H](CO)O2)c(=O)n1 [Lamivudine],1.12 ± 0.031
17,CCc1c(Cl)c(O)c(Cl)c(O)c1C(=O)O[C@H]1[C@H](O)[C@H](OC)[C@H](OC/C2=C\C=C\C[C@H](O)/C(C)=C/[C@H](CC)[C@@H](O[C@@H]3OC(C)(C)[C@@H](OC(=O)C(C)C)[C@H](O)[C@@H]3O)/C(C)=C/C(C)=C/C[C@@H]([C@@H](C)O)OC2=O)O[C@@H]1C [Fidaxomicin],1.1092 ± 0.00057
18,Cc1cc2c(F)c(Oc3ncnn4cc(OC[C@@H](C)O)c(C)c34)ccc2[nH]1,1.05 ± 0.038
19,O=C(O)CSCC(=O)NC1CCSC1=O (stereo not drawn) [Erdosteine],0.966 ± 0.034
